About 540 (0.36%) of roughly 150,000 compounds showed an effect of 50% or more. The list shows a part of the results.
test system: Plasmodium falciparum; assay: Primary screen in NF54 nanoGlo assay, in single point, at 2uM, 72h; a lower Z score goes with more inhibition; format: functional, Erythrocyte; details: timepoint 72 hour

Row | Structure (SMILES) | % Inhibition | Z score
1 | Cn1cccc1C(=O)Nc1ccc(-c2cccc(F)c2F)cn1 | -16% | 2.93
2 | CCc1csc(CN[C@@H](C)CC(C)(C)OC)n1 | -4% | 0.68
3 | Cc1ccc2oc(-c3ccc(NC(=O)c4ccc5c(c4)OCCO5)cc3O)nc2c1 | -12% | 1.96
4 | O=C(NCc1noc2c1CCCC2)N1CC2C3CCC(C3)C2C1 (stereo not given) | -6% | 0.86
5 | CC(C)(C)n1ncnc1CNC1(c2ccccc2Br)CC1 | -5% | 0.57
6 | CN(C)C(=O)c1cc(CN)cc(NC(=O)c2ccccn2)c1 | -1% | 0.09
7 | Fc1ccc([C@@H]2CCc3nnc(Cc4ccccc4)n3-c3cc(F)ccc32)cc1 | -3% | 0.5
8 | Cc1cc(F)c(C(=O)N[C@@H](C(C)C)C2CC2)c(F)c1 | -1% | 0.19
9 | O=C(N[C@H]1C[C@@](CO)(c2ccccc2)C1)c1nc[nH]c1C(F)(F)F | -6% | 1.15
10 | Cc1ccccc1-c1cn[nH]c1[C@H]1CCCN(C(=O)CCCc2ccccc2)C1 | -19% | 2.7
11 | CNC(=O)[C@@H]1CCCN1C(=O)c1nnn(-c2cccc3ncccc23)c1C | -5% | 0.5
12 | Cc1ccc(OCCc2nnc(NC(=O)[C@]3(C)CCCCO3)s2)cc1 | -3% | 0.47
13 | CN(CC(=O)NC1CC1)C(=O)c1ccc(-c2ccccc2F)o1 | 1% | -0.27
14 | O=C1CC[C@H](CCNCc2cc3c(cc2Cl)OCO3)N1CC1CC1 | -13% | 1.81
15 | C[C@H]1CN(Cc2c(C(=O)N3CCCCCCC3)nc3ccc(Cl)cn23)CCN1C | -2% | 0.42
16 | Clc1ccc(-c2nc(C3CC3)ncc2-c2nnnn2-c2ccccc2)cc1Cl | 1% | -0.22
17 | CC(=O)Nc1cccc(F)c1-c1nc[nH]n1 | -5% | 0.98
18 | CC1CN(C)CC(C)N1C(=O)CCC(F)(F)F (stereo not given) | -3% | 0.43
19 | O=C(Nc1ccc(Cl)c(Cl)c1)N1C2CCC1CC(n1cncn1)C2 (stereo not given) | -1% | 0.16
20 | CC(=O)Nc1cc(NC2CCN(c3nc(C)cs3)CC2)ccc1C | -8% | 0.91
21 | Cc1ccccc1C(CN1CCOCC1)NCC1CCCN(C)C1 (stereo not given) | -5% | 0.51
22 | COC(=O)c1cc(NC(=O)NC[C@H](O)C(F)(F)F)n(C)n1 | 8% | -1.05

Row | Structure (SMILES) | % Inhibition | Z score
23 | O=C(NC(CC1CCCCC1)C(=O)O)C1CCC2CC2C1 (stereo not given) | -23% | 2.49
24 | COC1(C(F)(F)F)CN(C(=O)Nc2ccncc2N(C)C)C1 | -10% | 1.99
25 | O=C(NC[C@H]1CCCC[C@@H]1O)c1ccoc1C(F)(F)F | -5% | 0.81
26 | Clc1ccc([C@@H]2CCCN2c2nnc(-c3ccccn3)s2)cc1 | -9% | 1.44
27 | CC(C)c1nccc(CN2CCC[C@H](c3nnc[nH]3)C2)n1 | -11% | 1.47
28 | Cc1ccccc1CN1CCN(c2cccc3ccccc23)C(=O)[C@@H]1C | -18% | 2.49
29 | N#Cc1ccc(-c2nc(C(=O)NC[C@H]3CCCO3)no2)cc1 | -20% | 1.8
30 | O=C(CCc1cccnc1)N1CCc2ncnc(N3CCCC3)c2CC1 | -27% | 2.72
31 | O=C(c1cc(C2CC2)nc2ccccc12)N1CCC[C@H](Nc2ccc3c(c2)OCCO3)C1 | 6% | -0.9
32 | COC(=O)c1ccccc1NC(=O)CS(=O)(=O)c1nnnn1-c1cccc2ccccc12 | -10% | 0.89
33 | COc1ccc(CN2CCC[C@@](O)(c3ccccc3)CC2)nc1 | -1% | 0.17
34 | Cc1ccccc1Nc1nnc(CC(=O)N2CCN(c3ccccc3)CC2)s1 | -16% | 1.89
35 | CCC1CN(C(=O)NCCS(=O)(=O)N(CC)CC)CC(C)O1 (stereo not given) | -10% | 0.94
36 | O=C(CN1CCOCC1)N1CCC[C@H]1c1cccs1 | -8% | 1.2
37 | C(=Cc1nnc(-c2cnccn2)o1)c1ccc2c(c1)OCCO2 | -5% | 0.88
38 | Cc1cccc(C)c1OCC(O)CN1C(=O)C2CCCCN2C1=O (stereo not given) | -2% | 0.45
39 | CC(C)=CCC/C(C)=C/CNC(=O)c1c(Cl)cnn1C | 7% | -1.27
40 | CN1CCC(N(C[C@H]2CCOC2)C(=O)c2ccc3c(c2)OCO3)CC1 | -10% | 1.32
41 | CC1=C[C@@H](CN2CCC[C@H]2CO)[C@H](C(C)C)C[C@H]1Cc1nnc(-c2ccncc2)o1 | 6% | -0.71
42 | Cc1ccc(-c2noc(-c3cccn4c(=O)n(CC(=O)N(C)C5CCCCC5)nc34)n2)cc1 | -9% | 1.18
43 | Cn1ccc(CC(=O)Nc2c(Cl)cc(F)cc2Br)n1 | -4% | 0.49
44 | CC(C)c1cc(NC2CC[S+]([O-])C2)ncn1 (stereo not given) | -2% | 0.14

Row | Structure (SMILES) | % Inhibition | Z score
45 | COc1ccc(CNC(=O)CNS(=O)(=O)Cc2ccccc2)cc1OC | 1% | -0.15
46 | CCn1c([C@H]2CCN(C(=O)CCC(C)C)C2)nc2cccnc21 | -7% | 0.79
47 | O=C(NC[C@@H](c1ccco1)N1CCOCC1)c1ccco1 | -5% | 0.65
48 | COC[C@H]1CCCN(C(=O)Nc2ccc(-n3cccn3)c(Cl)c2)C1 | 4% | -0.4
49 | COC[C@H]1CCCCN1C(=O)c1cn(Cc2cccc3ccccc23)nn1 | -9% | 1.18
50 | CC1CN(CCC(=O)N(C)CCC#N)CCC1c1ccccc1 (stereo not given) | -2% | 0.2
51 | CCCCCOCC(=O)NCc1nc(C)c(C(N)=O)s1 | -6% | 1.26
52 | C=CCn1ncc(-c2cc(-c3ccc(OC)nc3)nc(N)c2C#N)c1C | -7% | 1.38
53 | O=C(C#Cc1ccc2c(c1)OCO2)N1CCCC1 | -13% | 2.6
54 | CC(C)C(=O)N1CCc2ccc(OCc3ccc(C(=O)NCc4cccc(F)c4)o3)cc2[C@@H]1c1ccc(F)cc1 | -10% | 0.98
55 | CCN(CC)C(=O)c1cnc2snc(C)c2c1N1CCC(C(=O)Nc2ccc(Br)c(C)c2)CC1 | 1% | -0.18
56 | CN1CC2(C[C@H]1c1nc(-c3ccncc3)no1)CN(C(=O)CCn1cccn1)C2 | -20% | 2.28
57 | CN=C(NC)N(C)Cc1ccccc1Br | 4% | -0.42
58 | COC(=O)C[C@H](NC(=O)c1cc(C)sn1)c1ccncc1 | 8% | -0.99
59 | CCCN(Cc1ccc2ncccc2c1)[C@@H](C)C(=O)Nc1ccccc1 | 1% | -0.07
60 | c1cc2c(cc1CN1CCCC3(C1)OCCO3)CCO2 | -7% | 0.63
61 | CONC(=O)C1CN(c2nc3c(F)cccc3s2)C1 | -7% | 1.01
62 | O=C(NCCn1nnc2cc(C(=O)N3CCCCC3)ccc21)NCc1ccco1 | -3% | 0.35
63 | O=S(=O)(c1cccc(F)c1)N1CC(c2nc(CCOCC3CCOCC3)no2)C1 | -10% | 1.29
64 | CC1CN(C2CC2)CC1NC(=O)c1ccc2ncsc2c1 (stereo not given) | -17% | 1.82
65 | CNC(=O)c1cccc(-n2ccnc2-c2ccc(Cl)s2)c1 | 4% | -0.81
66 | CC(=O)N1C[C@@H](C(=O)N2CCN(c3ccccn3)CC2)[C@H](c2nc(C)no2)C1 | -8% | 1.17

Row | Structure (SMILES) | % Inhibition | Z score
67 | COc1ccc(N2CCN3c4ccc(Br)cc4CC4(C(=O)N(c5ccccc5)N=C4C)C3C2)cc1 (stereo not given) | -4% | 0.52
68 | CN(CCOc1ccc(F)cc1Cl)Cc1ncnn1C | -7% | 0.65
69 | O=S(=O)(Cc1nnnn1-c1ccccc1)c1ccc(F)cc1 | -10% | 1.25
70 | COc1ccnc(CN(C)C[C@H]2CCCO2)c1OC | -5% | 0.73
71 | CC(=O)N1CCC(NC(=O)COc2ccc3ncccc3c2)CC1 | 29% | -3.74
72 | Cc1ncsc1-c1nc(C(C)(C)NS(C)(=O)=O)no1 | 5% | -0.77
73 | O=C(Nc1nc2c(s1)CCC2)c1ccc2c(=O)n3c(nc2c1)CCCCCC3 | 1% | -0.16
74 | O=C(Nc1ccc(Br)cc1)c1c(F)c(F)c2c(c1F)N(Cc1ccco1)CCS2(=O)=O | 4% | -0.48
75 | Cc1ccc(C(=O)N/C(=N/c2ccc3c(c2)OCCO3)NC[C@H]2CCCO2)cc1C | -26% | 2.37
76 | Cc1cc(NS(=O)(=O)Cc2cccc(C(F)(F)F)c2)n(C)n1 | -4% | 0.83
77 | Cc1cc(CNC(=O)N2CC(N3CCCC[C@@H]3C)C2)ccn1 | -3% | 0.52
78 | O=C(NCC[C@H]1CCCN1)c1cn(C(c2ccccc2)c2ccccc2)nn1 | 11% | -2.11
79 | O=C(CCS(=O)(=O)c1ccccc1)N(Cc1ccccc1)c1nc2c(Cl)cccc2s1 | -13% | 1.87
80 | CC(C)CN1CCC([C@H]2c3nccn3CCCN2CC(C)C)CC1 | 3% | -0.5
81 | CN(CC(=O)Nc1ccccc1C(=O)NCCc1ccccc1)Cc1cccs1 | -36% | 4.25
82 | O=C(NCc1cccnc1)c1coc(COc2cccc(F)c2)n1 | 1% | -0.28
83 | O[C@H]1CN(CC2CCC(C(F)(F)F)CC2)CC12CC2 (stereo not given in full) | 6% | -1
84 | CCN(Cc1nc(C(C)C)no1)S(=O)(=O)[C@H]1CCS(=O)(=O)C1 | 3% | -0.65
85 | Cc1ccc(-c2cc(=O)n(CC(=O)Nc3ccc(Cl)cc3)[nH]2)cc1 | -10% | 1.57

Reference: ChEMBL document CHEMBL4888484, “Replenishing the malaria drug discovery pipeline: Screening and hit evaluation of the MMV Hit Generation Library 1 (HGL1) against asexual blood stage Plasmodium falciparum ,using a nano luciferase reporter read-out” (2022)
